Test results from article PMC12820563.
The other results are listed elsewhere or left out. The list includes weakly bound sequences.

The sequences below were run against T1, MBP-FoxP3dN (UniProt Q99JB6) (assay: PD-seq (MBP pull-down with sequencing)). Conditions: 20 mM Tris-HCl pH 7.5, 100 mM NaCl, 1.5 mM MgCl2, 0.4 uM protein, 0.1 uM dsDNA library, 30 min, room temperature, amylose pull-down; high values mean tight binding; double strand, one strand shown.
T1 sequence: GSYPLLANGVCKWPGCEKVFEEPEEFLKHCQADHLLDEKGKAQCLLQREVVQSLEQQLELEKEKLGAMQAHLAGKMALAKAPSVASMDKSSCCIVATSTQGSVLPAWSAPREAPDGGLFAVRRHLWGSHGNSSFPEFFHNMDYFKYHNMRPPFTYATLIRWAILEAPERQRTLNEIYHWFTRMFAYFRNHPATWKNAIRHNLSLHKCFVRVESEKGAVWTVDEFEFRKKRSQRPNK

Sequence	binding signal (RPM ratio (pull-down/input))
GATGATTGTTCTCCCAGCTGATGAATTGACGTAATCGAGTAAACAAATTTTCCTAATCTTTCTGTTCAAGCGCCATCTAC	0.865
GATGATTGTTCTCCCAGCTGATGAATTGGCAAGATCGAGTAAACAAATTTTCCTAATCTTTCTGTTCAAGCGCCATCTAC	0.286
GATGATTGTTCTCCCAGCTGATGAATTGGCGTGGTCGAGTAAACAAATTTTCCTAATCTTTCTGTTCAAGCGCCATCTAC	1.22
GATGATTGTTCTCCCAGCTGATGAATTACGGTAATCGAGTAAACAAATTTTCCTAATCTTTCTGTTCAAGCGCCATCTAC	0.556
GATGATTGTTCTCCCAGCTGATGAATTCCGTTAGTCGAGTAAACAAATTTTCCTAATCTTTCTGTTCAAGCGCCATCTAC	1.22
GATGATTGTTCTCCCAGCTGATGAATTCGCAAAGTCGAGTAAACAAATTTTCCTAATCTTTCTGTTCAAGCGCCATCTAC	0.253
GATGATTGTTCTCCCAGCTGATGAATTCCCACCATCGAGTAAACAAATTTTCCTAATCTTTCTGTTCAAGCGCCATCTAC	0.298
GATGATTGTTCTCCCAGCTGATGAATTGCGGTAATCGAGTAAACAAATTTTCCTAATCTTTCTGTTCAAGCGCCATCTAC	0.909
GATGATTGTTCTCCCAGCTGATGAATTGAGCTAGTCGAGTAAACAAATTTTCCTAATCTTTCTGTTCAAGCGCCATCTAC	0.815
GATGATTGTTCTCCCAGCTGATGAATTCACCTTGTCGAGTAAACAAATTTTCCTAATCTTTCTGTTCAAGCGCCATCTAC	0.341
GATGATTGTTCTCCCAGCTGATGAATTTGAGATATCGAGTAAACAAATTTTCCTAATCTTTCTGTTCAAGCGCCATCTAC	0.422
GATGATTGTTCTCCCAGCTGATGAATTTATTTCTTCGAGTAAACAAATTTTCCTAATCTTTCTGTTCAAGCGCCATCTAC	3.01
GATGATTGTTCTCCCAGCTGATGAATTCTAAATGTCGAGTAAACAAATTTTCCTAATCTTTCTGTTCAAGCGCCATCTAC	0.367
GATGATTGTTCTCCCAGCTGATGAATTGTTTTCGTCGAGTAAACAAATTTTCCTAATCTTTCTGTTCAAGCGCCATCTAC	3.95
GATGATTGTTCTCCCAGCTGATGAATTTGAAGGTTCGAGTAAACAAATTTTCCTAATCTTTCTGTTCAAGCGCCATCTAC	0.401
GATGATTGTTCTCCCAGCTGATGAATTGATCCTGTCGAGTAAACAAATTTTCCTAATCTTTCTGTTCAAGCGCCATCTAC	0.304
GATGATTGTTCTCCCAGCTGATGAATTATACCTATCGAGTAAACAAATTTTCCTAATCTTTCTGTTCAAGCGCCATCTAC	0.557
GATGATTGTTCTCCCAGCTGATGAATTTCTCCAGTCGAGTAAACAAATTTTCCTAATCTTTCTGTTCAAGCGCCATCTAC	0.165
GATGATTGTTCTCCCAGCTGATGAATTTCGTGCCTCGAGTAAACAAATTTTCCTAATCTTTCTGTTCAAGCGCCATCTAC	0.931
GATGATTGTTCTCCCAGCTGATGAATTCACCCCCTCGAGTAAACAAATTTTCCTAATCTTTCTGTTCAAGCGCCATCTAC	0.272
GATGATTGTTCTCCCAGCTGATGAATTCCTTAATTCGAGTAAACAAATTTTCCTAATCTTTCTGTTCAAGCGCCATCTAC	0.24

Sequence	binding signal (RPM ratio (pull-down/input))
GATGATTGTTCTCCCAGCTGATGAATTCACATGCTCGAGTAAACAAATTTTCCTAATCTTTCTGTTCAAGCGCCATCTAC	0.452
GATGATTGTTCTCCCAGCTGATGAATTGCCGCCATCGAGTAAACAAATTTTCCTAATCTTTCTGTTCAAGCGCCATCTAC	2.97
GATGATTGTTCTCCCAGCTGATGAATTCCCCGTATCGAGTAAACAAATTTTCCTAATCTTTCTGTTCAAGCGCCATCTAC	0.309
GATGATTGTTCTCCCAGCTGATGAATTGACCTCATCGAGTAAACAAATTTTCCTAATCTTTCTGTTCAAGCGCCATCTAC	0.354
GATGATTGTTCTCCCAGCTGATGAATTGCAAAGTTCGAGTAAACAAATTTTCCTAATCTTTCTGTTCAAGCGCCATCTAC	0.633
GATGATTGTTCTCCCAGCTGATGAATTCATCCACTCGAGTAAACAAATTTTCCTAATCTTTCTGTTCAAGCGCCATCTAC	0.414
GATGATTGTTCTCCCAGCTGATGAATTAGTGGCTTCGAGTAAACAAATTTTCCTAATCTTTCTGTTCAAGCGCCATCTAC	1.19
GATGATTGTTCTCCCAGCTGATGAATTTCCCTTTTCGAGTAAACAAATTTTCCTAATCTTTCTGTTCAAGCGCCATCTAC	0.236
GATGATTGTTCTCCCAGCTGATGAATTAACTTTGTCGAGTAAACAAATTTTCCTAATCTTTCTGTTCAAGCGCCATCTAC	0.607
GATGATTGTTCTCCCAGCTGATGAATTCTGGCGGTCGAGTAAACAAATTTTCCTAATCTTTCTGTTCAAGCGCCATCTAC	0.281
GATGATTGTTCTCCCAGCTGATGAATTGTAAGAGTCGAGTAAACAAATTTTCCTAATCTTTCTGTTCAAGCGCCATCTAC	0.313
GATGATTGTTCTCCCAGCTGATGAATTGCTGCATTCGAGTAAACAAATTTTCCTAATCTTTCTGTTCAAGCGCCATCTAC	6.8
GATGATTGTTCTCCCAGCTGATGAATTCACTCACTCGAGTAAACAAATTTTCCTAATCTTTCTGTTCAAGCGCCATCTAC	0.383
GATGATTGTTCTCCCAGCTGATGAATTTCATAAGTCGAGTAAACAAATTTTCCTAATCTTTCTGTTCAAGCGCCATCTAC	0.218
GATGATTGTTCTCCCAGCTGATGAATTCTGATGATCGAGTAAACAAATTTTCCTAATCTTTCTGTTCAAGCGCCATCTAC	1.27
GATGATTGTTCTCCCAGCTGATGAATTTGGCCAGTCGAGTAAACAAATTTTCCTAATCTTTCTGTTCAAGCGCCATCTAC	1.41
GATGATTGTTCTCCCAGCTGATGAATTATCGCCTTCGAGTAAACAAATTTTCCTAATCTTTCTGTTCAAGCGCCATCTAC	2.9
GATGATTGTTCTCCCAGCTGATGAATTCGATTTATCGAGTAAACAAATTTTCCTAATCTTTCTGTTCAAGCGCCATCTAC	1.71
GATGATTGTTCTCCCAGCTGATGAATTTGAGATCTCGAGTAAACAAATTTTCCTAATCTTTCTGTTCAAGCGCCATCTAC	0.446
GATGATTGTTCTCCCAGCTGATGAATTCAACATATCGAGTAAACAAATTTTCCTAATCTTTCTGTTCAAGCGCCATCTAC	0.557
GATGATTGTTCTCCCAGCTGATGAATTTCTGCGATCGAGTAAACAAATTTTCCTAATCTTTCTGTTCAAGCGCCATCTAC	0.556

Sequence	binding signal (RPM ratio (pull-down/input))
GATGATTGTTCTCCCAGCTGATGAATTTGAGATGTCGAGTAAACAAATTTTCCTAATCTTTCTGTTCAAGCGCCATCTAC	0.56
GATGATTGTTCTCCCAGCTGATGAATTCAGGGGCTCGAGTAAACAAATTTTCCTAATCTTTCTGTTCAAGCGCCATCTAC	0.323
GATGATTGTTCTCCCAGCTGATGAATTGAACCGATCGAGTAAACAAATTTTCCTAATCTTTCTGTTCAAGCGCCATCTAC	0.249
GATGATTGTTCTCCCAGCTGATGAATTGGACAGGTCGAGTAAACAAATTTTCCTAATCTTTCTGTTCAAGCGCCATCTAC	0.217
GATGATTGTTCTCCCAGCTGATGAATTTTTTTCGTCGAGTAAACAAATTTTCCTAATCTTTCTGTTCAAGCGCCATCTAC	0.345
GATGATTGTTCTCCCAGCTGATGAATTAAGTCACTCGAGTAAACAAATTTTCCTAATCTTTCTGTTCAAGCGCCATCTAC	1.03
GATGATTGTTCTCCCAGCTGATGAATTCATGTAGTCGAGTAAACAAATTTTCCTAATCTTTCTGTTCAAGCGCCATCTAC	0.756
GATGATTGTTCTCCCAGCTGATGAATTTCTTTTATCGAGTAAACAAATTTTCCTAATCTTTCTGTTCAAGCGCCATCTAC	0.545
GATGATTGTTCTCCCAGCTGATGAATTGGCAAATTCGAGTAAACAAATTTTCCTAATCTTTCTGTTCAAGCGCCATCTAC	0.349
GATGATTGTTCTCCCAGCTGATGAATTCCAGAGATCGAGTAAACAAATTTTCCTAATCTTTCTGTTCAAGCGCCATCTAC	0.223
GATGATTGTTCTCCCAGCTGATGAATTCCCCTGATCGAGTAAACAAATTTTCCTAATCTTTCTGTTCAAGCGCCATCTAC	0.207
GATGATTGTTCTCCCAGCTGATGAATTTTGATTCTCGAGTAAACAAATTTTCCTAATCTTTCTGTTCAAGCGCCATCTAC	1.11
GATGATTGTTCTCCCAGCTGATGAATTAATCGAATCGAGTAAACAAATTTTCCTAATCTTTCTGTTCAAGCGCCATCTAC	0.245
GATGATTGTTCTCCCAGCTGATGAATTAATATAGTCGAGTAAACAAATTTTCCTAATCTTTCTGTTCAAGCGCCATCTAC	0.614
GATGATTGTTCTCCCAGCTGATGAATTGAGACGCTCGAGTAAACAAATTTTCCTAATCTTTCTGTTCAAGCGCCATCTAC	0.414
GATGATTGTTCTCCCAGCTGATGAATTGAATATGTCGAGTAAACAAATTTTCCTAATCTTTCTGTTCAAGCGCCATCTAC	0.689
GATGATTGTTCTCCCAGCTGATGAATTTGGTCTCTCGAGTAAACAAATTTTCCTAATCTTTCTGTTCAAGCGCCATCTAC	0.705
GATGATTGTTCTCCCAGCTGATGAATTCCCGGCATCGAGTAAACAAATTTTCCTAATCTTTCTGTTCAAGCGCCATCTAC	0.52
GATGATTGTTCTCCCAGCTGATGAATTGACATTGTCGAGTAAACAAATTTTCCTAATCTTTCTGTTCAAGCGCCATCTAC	0.658
GATGATTGTTCTCCCAGCTGATGAATTCGAGAGCTCGAGTAAACAAATTTTCCTAATCTTTCTGTTCAAGCGCCATCTAC	0.192
GATGATTGTTCTCCCAGCTGATGAATTCTAGGTTTCGAGTAAACAAATTTTCCTAATCTTTCTGTTCAAGCGCCATCTAC	0.456
